# Paper PMC12136788
# Substitutions are numbered along the chain they refer to. The list shows a part of the results.
# B1: chr1:33854737:33854738:-_ENSMUSG00000042197_ENSMUST00000044455|mus_mus|motif|central (ssRNA)
# RNA: GGGAGUUCUACAGUCCGACGAUCGGUAACUUCCUCCUUUAAAAUUUAAGUGAAAAGAACUAACUAGUUUGUAUGCCCACGGAAAACCAUACAGAACCAAUCUGACCAAUUGAAUGACAUGCAUAAGAUAUACCCACAGUGACACAACAGAGGAUUGAGCAUCA
# B2: chr7:141438946:141438947:+_ENSG00000106028_ENST00000265304|hu_mus|hu_hu_hu_mus_True|28_98 (ssRNA)
# RNA: GGGAGUUCUACAGUCCGACGAUCGACGAAAUACCUGACAGGUCUUCCUUCGAAACAUGGCUUCUGUUUUUCUUACAACCUAAUCUUUAGGCUUUUCCUAAAGGAAAAACCCGAGCAAGAAAAAUGAUAAAUCAAGAAACUACACAACAGAGGAUUGAGCAUCA
# B3: chr12:96259795:96259796:+_ENSG00000139343_ENST00000266735|hu_mus|FALSE|FALSE (ssRNA)
# RNA: GGGAGUUCUACAGUCCGACGAUCGAGGACAUUAUUACACCUUAUUAGAACUUCGCCCAGAUGUCCAGACAGCGCCCCAUCUAUGUACUCUUCUGUAUUUGCAAGCUGCAUGUUCAUGUAGCCAUCCACGGAGACCAGGUAGCCCAACAGAGGAUUGAGCAUCA
# B4: chr4:144460044:144460045:+_ENSG00000153147_ENST00000283131|hu_mus|hu_hu_hu_mus_False|48_58 (ssRNA)
# RNA: GGGAGUUCUACAGUCCGACGAUCACGGUCCAUAGCCUGAAGAUCAACUUGCGGAUUCCAAUCUGAGUCAUAUAAAAUUACUACAUCAGCAGUCGCAAGAUUGAUGCCCAGACCACCAGCACGUGUGCUUAGCAUAAAUACAAACAACAGAGGAUUGAGCAUCA
# B5: chr11:120668454:120668455:-_ENSMUSG00000025153_ENSMUST00000055655|mus_hu|FALSE|FALSE (ssRNA)
# RNA: GGGAGUUCUACAGUCCGACGAUCGAGAUCACAUGCGGUUUAAUUGUGGGAGGCUGAGAGCAGCAUUUUUACCAAAUUGGUGUAAAAAUGAAACGGGGUCCAGACGUGUACACUGACAGUUACAGUAAAUUUCAAAAUCCAAGCCAACAGAGGAUUGAGCAUCA
# B6: chr2:14037654:14037655:+_ENSMUSG00000026718_ENSMUST00000102960|mus_hu|FALSE|FALSE (ssRNA)
# RNA: GGGAGUUCUACAGUCCGACGAUCAUGACCCUUAUUUAAUACGUUGCUUACUUCACUAGCAAAAUCUCUUGAACAUACUUCUAAAUGAAAAAUUUUGCCACAGUUUGAUACACAUGCUCCUAGAAGAGUCAAAGCCUGCAUAGCCAACAGAGGAUUGAGCAUCA
# B7: chr3:139075876:139075877:+_ENSG00000175110_ENST00000310776|hu_mus|motif|central (ssRNA)
# RNA: GGGAGUUCUACAGUCCGACGAUCCCAAGAUUUUUAAAUGUUCAGCUUAGUAUUACCAAAAUGGAAGGGCAUUACGGUGAAAUGUGUUUUUAACUGUUCUCAGGAUGCUGCGGAAUGACUGGUAACUAUUUCUUGAUAAGUUUGCAACAGAGGAUUGAGCAUCA
# B8: chr4:115894766:115894767:+_ENSMUSG00000028698_ENSMUST00000030464|mus_hu|mus_mus_mus_hu_True|18_88 (ssRNA)
# RNA: GGGAGUUCUACAGUCCGACGAUCUUCCACACGGAAAUGUACUUCGGGUUUCCAACGGGCCAGUACCAGUCCGGCCAAACUACCCGAACAGGGUCCUCCCCCUCUCUCCUACAGAACUAAAGCACCCGCCCCCGAACUUUCAAGCAACAGAGGAUUGAGCAUCA
# B9: chr12:105553856:105553857:+_ENSG00000136051_ENST00000332180|hu_hu|FALSE|FALSE (ssRNA)
# RNA: GGGAGUUCUACAGUCCGACGAUCAAUUAUAUAGAAAUUUCGGAGAUGUAUAUUCUUUGGCCUUCGAAAUUCUGGAGCAAAAACGUCUACAAGCAUUUUGAAAUAUUCUGUGCCUUCGGCAGAAUUUCGUGUGUGAUCACUGAGCAACAGAGGAUUGAGCAUCA
# B10: chr2:217012863:217012864:+_ENSG00000079246_ENST00000392132|hu_hu|FALSE|FALSE (ssRNA)
# RNA: GGGAGUUCUACAGUCCGACGAUCGAGAGGAAUCUGACUUUUUGUUGUCACCUCAGCGGGAGGAUUCAGCAUAUUCCAAAUAUGCUGCUGAAUUGGGGGUAGAGGCUCCCGGGGAUGUAAAGCUCUGUGCAGCAGACACUGAAACAACAGAGGAUUGAGCAUCA
# B11: chr14:66974463:66974464:+_ENSMUSG00000022044_ENSMUST00000074523|mus_hu|mus_mus_mus_hu_False|58_88 (ssRNA)
# RNA: GGGAGUUCUACAGUCCGACGAUCUUGUAGGACGACUUAUUCAGGGGAUCAGACAAGAAGCAGGAGCAGAACAAGGACACUAGUGGGAGCUCCUUCAUCUUCUCUUUGUAGGCAGCAAGGGUCAUGUUUCUGGGAUCUGGUGGCCAACAGAGGAUUGAGCAUCA
# B12: chr5:135510151:135510152:+_ENSG00000113658_ENST00000545279|hu_mus|FALSE|FALSE (ssRNA)
# RNA: GGGAGUUCUACAGUCCGACGAUCGAGGCUGCAGCUGCUGGGGAUCUUACAGACGGUGGUGGGAUGGAAGCCAUGGUGAAAGUUGCAGUUCCUACUCUGAACAAAGAUGCUGCUGUCACUAAGACACUCAGCGUACACCUCCCCCAACAGAGGAUUGAGCAUCA
# B13: chr7:151048522:151048523:+_ENSG00000013374_ENST00000566856|hu_mus|hu_hu_hu_mus_True|48_88 (ssRNA)
# RNA: GGGAGUUCUACAGUCCGACGAUCCUGUUUCUUAUUUAUUACGAUCUUGAUAUAAUUUUCUUGAAAUCCGAAAGUUUCAGCUAUUUGGGACCUCAGUUCUCUACCAGUGACAUGCAAGCGGGUCUCCAACAAGCUUUUCUUAUCCAACAGAGGAUUGAGCAUCA
# B14: chrX:100667754:100667755:+_ENSG00000126945_ENST00000316594|hu_mus|FALSE|FALSE (ssRNA)
# RNA: GGGAGUUCUACAGUCCGACGAUCUCCAUAUCUAUGAUCAGACAUUCCUGAGAAACAGUAGUUUAGGUCUCUUCCAAAUCUAUCAGACCCAAAACCAUACCCGUCAUUAUAACCUCCAUAGUCAUCAUAGCCUCCAUACCCUCCCAACAGAGGAUUGAGCAUCA
# B15: chr6:51419726:51419727:-_ENSMUSG00000004980_ENSMUST00000114459|mus_hu|FALSE|FALSE (ssRNA)
# RNA: GGGAGUUCUACAGUCCGACGAUCUCCAUCGCGGACUCAGUCGCUUCAGCCCGAUUUCCCGCAGCCGAGCGAGAUGAGAGAGAUCUCCGCGGACGAACACGAACCGGACUCGUCCUGGCGCUGUAGUGAGAACUGCCGCUGCUCCAACAGAGGAUUGAGCAUCA
# B16: chr4:144460044:144460045:+_ENSG00000153147_ENST00000283131|hu_mus|hu_hu_hu_mus_False|48_88 (ssRNA)
# RNA: B4 RNA with C51G, U78G
# B17: chr1:186330019:186330020:-_ENSG00000047410_ENST00000367478|hu_mus|FALSE|FALSE (ssRNA)
# RNA: GGGAGUUCUACAGUCCGACGAUCCUCAAGCAUUUCUUUUUCCAUCUGAUCUUUAGAUUCUUCCACUUGUAGAAGAUGAUCUUGUAUUGUUUUGUUGGCUUCUCCUGCUUCUUUGAGCAGUUUGUGCAGCUCGUCCACUGCCCGCAACAGAGGAUUGAGCAUCA
# B18: chr1:225611761:225611762:-_ENSG00000143815_ENST00000272163|hu_mus|hu_hu_hu_mus_True|88_98 (ssRNA)
# RNA: GGGAGUUCUACAGUCCGACGAUCCCAGGCCAUCGGCCUCUUACCACUUCACCAUCGACAAACUUCCUACUUGGCAUUUUCUAAAAUUAGUCUGGCCGCGCUCCGGCGGGAACUCCAGCCACUCCAGGACAGUCACCAGCAGCCCAACAGAGGAUUGAGCAUCA
# B19: chrX:140365796:140365797:-_ENSMUSG00000031285_ENSMUST00000033642|mus_mus|mus_mus_mus_hu_False|48_48 (ssRNA)
# RNA: GGGAGUUCUACAGUCCGACGAUCCUUCUCAUUACUCAGUGCCUGCAAGGUUCUGGUUCGGUAGAAGCUACAGUGGGCGCUGUGAGUGGGACUUGGAAACCCAUUCAUCCGGGAGCCUCGCAUGUUCCUGGAUGUCUUAUCUCUCAACAGAGGAUUGAGCAUCA
# B20: chr14:78183846:78183847:+_ENSG00000119705_ENST00000557342|hu_hu|hu_hu_hu_mus_False|1_8 (ssRNA)
# RNA: GGGAGUUCUACAGUCCGACGAUCUCUCAGAAAUCUUUCUUCAUCAGAUGUUUGAGCUCCGUGCAAAGCCUUUGCUCUUUGAGCUUGAACGUGGAUCUAUGGGAGGGAAAGCACUGUCAGAAAAGGUUGUAGUGCAUUCCGAAGCAACAGAGGAUUGAGCAUCA
# B21: 83319208_83319328_4002_CDS_ENSMUSG00000034832_ENSMUST00000089622|mouse|control|control (ssRNA)
# RNA: GGGAGUUCUACAGUCCGACGAUCGGUCAGAGGGUCUAUUGGCUCUUGCUUGAUGGAUCUGUUGUAGCAACUGGAACUCUGAGCAAAGGGAGAGGGGUCCCUGGAUGCUGGGUGGAGCUGGGGGACCUUGGGUAGCAGAUAUUCCAACAGAGGAUUGAGCAUCA
# B22: 115940733_115940853_919_3pUTR_ENSMUSG00000034341_ENSMUST00000074628|mouse|control|control (ssRNA)
# RNA: GGGAGUUCUACAGUCCGACGAUCGCUAACUUUAUACUCAGGCCUGGGGAAGAACAGGGCCCUCCCUGGCCUCCUGGAAUCCCAGAUGCAGCCCCACGGGAGGCCCAGGAAGGGGUCUCUGGGUAAGAGGCGGGAAGUGGGCAGCAACAGAGGAUUGAGCAUCA
# Biological target: T1, UNK ZnF1-3 (human, UniProt Q9C0B0 31-174)
# T1 sequence: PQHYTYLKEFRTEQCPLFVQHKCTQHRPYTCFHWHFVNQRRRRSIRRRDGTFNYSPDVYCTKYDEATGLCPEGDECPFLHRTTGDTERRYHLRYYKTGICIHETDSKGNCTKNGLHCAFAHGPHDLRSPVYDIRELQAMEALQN
# Assay: nsRBNS (natural sequence RNA bind-n-seq); RBNS binding buffer (assumed for nsRBNS): 25 mM Tris pH 7.5, 150 mM KCl, 3 mM MgCl2, 0.01% Triton X-100, 500 ug/ml BSA, 20 U/ml SUPERase-In, 4 C; UNK is unkempt and MSI1 is Musashi-1; names of the RNAs are library labels; protein concentration not given here; high values mean tight binding
row,Binder,binding signal [enrichment R]
1,B1,1.24
2,B2,0.566
3,B3,0.931
4,B4,1.08
5,B5,3.07
6,B6,1.62
7,B7,1.18
8,B8,1.2
9,B9,0.936
10,B10,1.66
11,B11,2.1
12,B12,1.42
13,B13,0.883
14,B14,1.04
15,B15,0.724
16,B16,1.2
17,B17,0.232
18,B18,1.31
19,B19,0.536
20,B20,1.27
21,B21,1.47
22,B22,0.867
